Test results from article PMC9408373.
These are yes or no findings as the source states them, for the method shown. Some entries that bind do so weakly or less than the wild type.

Protein sequences, listed by entry. Tags and fused reporters are not part of them. Lines headed by an entry give the natural chain unless they say otherwise; changes in a name come on top. Chains listed by the source or under a name are the forms on record and can include a tag or linker. Residues count along the entry.
human CDC42 (aa 1-178), wild type (P60953, residues 1-178): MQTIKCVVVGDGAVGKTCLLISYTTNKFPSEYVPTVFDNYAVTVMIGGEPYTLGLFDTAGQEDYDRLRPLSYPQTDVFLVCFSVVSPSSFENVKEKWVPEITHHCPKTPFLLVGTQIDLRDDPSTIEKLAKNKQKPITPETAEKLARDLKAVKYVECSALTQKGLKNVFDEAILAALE
human CDC42 (aa 1-178) Q61L (P60953, form named): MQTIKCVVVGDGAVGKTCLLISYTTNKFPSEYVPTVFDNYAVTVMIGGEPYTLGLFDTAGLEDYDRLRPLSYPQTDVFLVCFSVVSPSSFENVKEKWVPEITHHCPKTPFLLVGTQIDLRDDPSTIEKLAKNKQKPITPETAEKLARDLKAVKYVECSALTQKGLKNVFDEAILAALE

Key:
[1] = target: human CDC42 (aa 1-178) Q61L (human) (UniProt P60953); experiment: fluorescence polarisation; 1 µM mant-GDP-bound CDC42 in the cuvette, IQGAP protein titrated; quadratic ligand binding equation; both purified
[2] = target: human CDC42 (aa 1-178), wild type (human) (UniProt P60953); experiment: as above
[3] = target: human CDC42 (aa 1-178), wild type (human) (UniProt P60953); experiment: fluorescence polarisation; 1 µM mant-GppNHp-bound CDC42 in the cuvette, IQGAP protein titrated; quadratic ligand binding equation; both purified

B1: human IQGAP2 GRD2 (aa 875-1246) (domain or fragment, UniProt Q13576 875-1246)
chain: SKERRKTLETYQQLFYLLQTNPLYLAKLIFQMPQNKSTKFMDTVIFTLYNYASNQREEYLLLKLFKTALEEEIKSKVDQVQDIVTGNPTVIKMVVSFNRGARGQNTLRQLLAPVVKEIIDDKSLIINTNPVEVYKAWVNQLETQTGEASKLPYDVTTEQALTYPEVKNKLEASIENLRRVTDKVLNSIISSLDLLPYGLRYIAKVLKNSIHEKFPDATEDELLKIVGNLLYYRYMNPAIVAPDGFDIIDMTAGGQINSDQRRNLGSVAKVLQHAASNKLFEGENEHLSSMNNYLSETYQEFRKYFKEACNVPEPEEKFNMDKYTDLVTVSKPVIYISIEEIISTHSLLLEHQDAIAPEKNDLLSELLGSLGE
- binding [1]: binds weakly
- binding [2]: binds weakly

B2: human IQGAP3 GRD3 (aa 942-1330) (domain or fragment, UniProt Q86VI3 942-1330)
chain: LKSLSKEKRQKLEAYQHLFYLLQTQPIYLAKLIFQMPQNKTTKFMEAVIFSLYNYASSRREAYLLLQLFKTALQEEIKSKVEQPQDVVTGNPTVVRLVVRFYRNGRGQSALQEILGKVIQDVLEDKVLSVHTDPVHLYKNWINQTEAQTGQRSHLPYDVTPEQALSHPEVQRRLDIALRNLLAMTDKFLLAITSSVDQIPYGMRYVAKVLKATLAEKFPDATDSEVYKVVGNLLYYRFLNPAVVAPDAFDIVAMAAGGALAAPQRHALGAVAQLLQHAAAGKAFSGQSQHLRVLNDYLEETHLKFRKFIHRACQVPEPEERFAVDEYSDMVAVAKPMVYITVGELVNTHRLLLEHQDCIAPDHQDPLHELLEDLGELPTIPDLIGESIA
- binding [2]: binds weakly
- binding [3]: binds weakly
